About 64,000 (15%) of roughly 420,000 compounds were called active. The inconclusive results got no clear call from the source; some entries with a clear call stand among them for comparison. Calls follow the shape of the dose curve; as a rule, active = well fitted inhibition curve with a large enough effect; inconclusive = small, poorly fitted or top-dose-only effect; inactive = flat fitted curve, though single readings scatter. Potencies of inconclusive entries are left out as doubtful fits.
Experiment: qHTS for Inhibitors of human tyrosyl-DNA phosphodiesterase 1 (TDP1): qHTS in cells in absence of CPT; also: nearly all actives have a fitted effect of over 55% in size
Conditions: DT40 Tdp1-/- hTDP1 cells, no CPT, ATP luminescence, 48 h; activity change, negative = growth inhibition: at 46.2 µM (top of the series) unless noted
Method in brief: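 A cellular qHTS used chicken DT40 cells lacking endogenous Tdp1 but carrying stably transfected human TDP1. Compounds were applied without camptothecin, and cell growth kinetics were judged by ATP-dependent luminescence after ≥48 hr.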
% is scaled to controls: 0 for no effect and ±100 for the full control effect; potency is read from the fitted curve at half-maximal effect; tags tell the direction and shape of the fitted curve.

Row | Structure (SMILES) | Potency | activity change, negative = growth inhibition
1 | CCOC(=O)Cc1csc(NC(=O)c2cnc3scc(C)n3c2=O)n1 | inconclusive [inhibitor, partial curve, poor fit] | 
2 | Cc1ccc([C@H]2C[C@@H](n3cc(C4CC4)nn3)[C@H](O)CN2C(=O)C2CCCCC2)cc1 | inactive | 
3 | O=c1[nH]c(Nc2ccccc2)cc2cc(Br)ccc12 | active: 18.4 µM | 
4 | Cn1c(=NC(=O)c2ccccc2[N+](=O)[O-])sc2cccc(F)c21 | inactive | 
5 | Cc1sc2ncn(CC(=O)N3CCCCC3)c(=O)c2c1S(=O)(=O)N1CCC(C)CC1 | inactive | 
6 | CCc1ccc2oc(=O)cc(CN(C)Cc3ccccc3)c2c1 | inconclusive [inhibitor, single point] | 
7 | CCOc1ccc(C(=O)Nc2onc3c2CCCC3)cc1 | inconclusive [inhibitor, single point] | 
8 | CCc1ccc(NC(=O)C(=O)c2ccccc2NC(C)=O)cc1 | inconclusive [inhibitor, single point] | 
9 | CC1CCCCC1NC(=O)CCCCCn1c(=S)[nH]c2ccccc2c1=O (stereo not drawn) | inconclusive [inhibitor, partial curve, poor fit] | 
10 | O=C(COc1ccccc1)Nc1ccc2nc(SCC(=O)N3CCc4ccccc43)sc2c1 | inconclusive [inhibitor, full curve] | 
11 | CCOc1cc(N2CCOCC2)c(OCC)cc1NC(=O)COC(=O)CCn1c(C)csc1=O | inactive | 
12 | CC1(C)CC2CC(C)(CN2C(=O)C23CCC(C)(C(=O)C2)C3(C)C)C1 (stereo not drawn) | inconclusive [inhibitor, partial curve] | 
13 | Fc1cc2[nH]c(=S)[nH]c2c(Br)c1N1CCSCC1 | inactive | 
14 | N#Cc1ccccc1Cn1c(SCC(=O)Nc2ccc(F)cc2)nc2ccccc21 | inconclusive [inhibitor, single point] | 
15 | O=C(N/C(=C/c1cccs1)C(=O)N1CCCCCC1)c1ccccc1 | inactive | 
16 | COc1ccc(NS(=O)(=O)c2cccc(C(=O)NNC(=O)c3ccc(C)o3)c2)cc1 | inconclusive [inhibitor, single point] | 
17 | Cc1ccc2[nH]c(C(=O)O)c(-c3ccccc3)c2c1 | inactive | 
18 | Cc1ccc(CNc2ccc3c(c2)ncn3C(C)(C)C)cc1 | inconclusive [inhibitor, single point] | 
19 | Cc1ccccc1CC(=O)Nc1cccc(S(=O)(=O)N2CCCC2)c1 | inactive | 
20 | Cc1ccc(NC(=O)C2=CC(c3ccc(C)cc3)=NS(=O)(=O)N2C)cc1 | inconclusive [inhibitor, single point] | 
21 | S=C(NCc1ccc(Cl)cc1Cl)NC1CCCCC1 | inconclusive [inhibitor, single point] | 
22 | CC(=O)c1c[nH]c(C(=O)Nc2ccc(N3CCCCCC3)cc2)c1 | inconclusive [inhibitor, single point] | 
23 | COc1ccc(NC(=O)Nc2c(O)ccc3ccccc23)cc1 | inconclusive [inhibitor, single point] | 
24 | COc1cccc(-c2cc(C(=O)Nc3ccccc3)c3ccccc3n2)c1 | active: 6.51 µM | 
25 | COc1ccc(CNCCCSc2nnnn2C)c(OC)c1 | inactive | 

Row | Structure (SMILES) | Potency | activity change, negative = growth inhibition
26 | COc1ccc(OC)c(S(=O)(=O)N2CCN(c3ccccc3)CC2)c1 | inactive | 
27 | Oc1c(Br)cc(CNC2CCCCC2)cc1Br | inactive | 
28 | CC(=O)c1ccc(NC(=O)c2nc(-c3ccccc3)n(-c3ccccc3Cl)n2)cc1 | active: 18.4 µM | 
29 | CC(C)C[C@H]1CN=C(Nc2ccccc2)N1CC1CCC1 | inconclusive [inhibitor, partial curve] | 
30 | N#CC1=C(SCc2ccccc2)NC(=O)CC1c1ccc(O)cc1 (stereo not drawn) | inconclusive [inhibitor, single point] | 
31 | Cc1cccc(C)c1NC(=O)CCN1C(=O)C2C3CCC(C3)C2C1=O (stereo not drawn) | inactive | 
32 | N#CC(c1ccc(Cl)cc1)c1nc2ccccc2nc1C(F)(F)F (stereo not drawn) | inactive | 
33 | CC1CN(S(=O)(=O)c2cc(C(=O)N(C)Cc3cccs3)ccc2Cl)CC(C)O1 (stereo not drawn) | inconclusive [inhibitor, single point] | 
34 | CC(C)N(C)c1ncnc2c1ncn2[C@H]1CN(Cc2ccc(-c3ccccc3)cc2)C[C@@H](CO)O1 | active: 6.51 µM | 
35 | CC(C)(C)n1nnnc1C(c1cccnc1)N(Cc1ccccc1)Cc1ccco1 (stereo not drawn) | inconclusive [inhibitor, single point] | 
36 | COc1ccc2[nH]c3c(c2c1)CCN1C(=O)C(CC(=O)NCc2ccco2)C[C@H](C(=O)N(C(C)C)C(C)C)[C@@]31C (stereo partly drawn) | inconclusive [inhibitor, single point] | 
37 | COC(=O)c1ccc(N2C(=O)CC(N3CCN(c4ccccc4)CC3)C2=O)cc1 (stereo not drawn) | inconclusive [inhibitor, single point] | 
38 | CCCCCCOC(=O)Nc1ccc(S(=O)(=O)Nc2cccc([N+](=O)[O-])c2)cc1 | inconclusive [inhibitor, partial curve] | 
39 | Cc1cccc(NC(=O)CSCC(=O)Nc2cccc(S(=O)(=O)N3CCCCCC3)c2)c1 | inconclusive [inhibitor, single point] | 
40 | CCOC(=O)C(C)Sc1nc(=O)n2cc(C)ccc2n1 (stereo not drawn) | inactive | 
41 | CSc1ccc(CNc2cccc3ccccc23)cc1 | inactive | 
42 | CCCC(C)c1nnc(NC(=O)COc2ccc3c(c2)OCO3)s1 (stereo not drawn) | inactive | 
43 | Cc1nc2cnc(OCc3ccccc3)nc2n(CCC#N)c1=O | inconclusive [inhibitor, partial curve] | 
44 | COc1ccccc1-c1c(C)nn2c(N3CCN(Cc4ccccc4)CC3)cc(C)nc12 | inconclusive [inhibitor, single point] | 
45 | Cc1ccc(C2C3=C(CC(C)(C)CC3=O)NC3=C2C(=O)c2ccccc23)cc1 (stereo not drawn) | active: 18.4 µM | 
46 | CC(Oc1ccccc1)C(=O)OCC(=O)N1CC(=O)Nc2ccccc21 (stereo not drawn) | inactive | 
47 | CC(=O)c1cccc(NC(=O)CN(C2CCCCC2)S(C)(=O)=O)c1 | inconclusive [inhibitor, full curve, poor fit] | 
48 | CCCCCOc1ccccc1C(=O)NCCCC(=O)O | inactive | 
49 | CC(OC(=O)CCCNC(=O)c1ccc(Cl)cc1)C(=O)N(C)Cc1ccccc1 (stereo not drawn) | inconclusive [inhibitor, single point] | 
50 | Cc1nn(CC(=O)NCC(C)c2ccccc2)c(=O)c2cc3ccccc3n12 (stereo not drawn) | inactive | 

Row | Structure (SMILES) | Potency | activity change, negative = growth inhibition
51 | COc1ccc(C(C)(C)C)cc1NC(=O)COC(=O)CSCc1c(C)noc1C | inactive | 
52 | O=C(c1csnn1)N1CCC2(CC1)CCN(c1ncccn1)CC2 | inconclusive [inhibitor, single point] | 
53 | CC[C@@H]1C(c2cccc(C)c2)=NN(c2ccccc2)[C@H]1C(=O)N1CCOC1=O | inconclusive [inhibitor, single point] | 
54 | COc1ccc(CCn2c(SCCN3CCCCC3)nc3ccccc3c2=O)cc1OC | active: 16.4 µM | 
55 | Cc1ccc(Nc2cc(-n3cccn3)ncn2)c(C)c1 | inconclusive [inhibitor, partial curve, poor fit] | 
56 | CCC(=O)Nc1cccc(-n2nnnc2SCC(=O)NCc2ccco2)c1 | inactive | 
57 | COc1ccc(C2c3ccc(O)cc3Oc3ncn(CC(C)C)c(=N)c32)cc1 (stereo not drawn) | inconclusive [inhibitor, single point] | 
58 | O=C(c1ccc(F)cc1)c1ccc(-c2ccc(F)cc2)nc1 | inactive | 
59 | O=[N+]([O-])c1cccc(/C=N/Nc2nc(NCc3ccccc3)nc(N3CCOCC3)n2)c1O | inconclusive [inhibitor, single point] | 
60 | O=C(N/N=C\c1ccc2c(c1)OCO2)c1ccco1 | inconclusive [inhibitor, single point] | 
61 | CCCCn1c(=O)c2oc3ccccc3c2n(Cc2cccc(C)c2)c1=O | inconclusive [inhibitor, single point] | 
62 | O=C(c1cccnc1Cl)N1CCOCC1 | inactive | 
63 | COc1cc2oc(=O)c(CC(=O)NCc3ccc(OC)c(OC)c3)c(C)c2cc1Cl |  | inconclusive: -10.4% [inhibitor]
64 | COc1ccc(N(C)C(=O)c2nc(-c3cccc(F)c3)n3c2CCCCC3)c(OC)c1 | inconclusive [inhibitor, partial curve] | 
65 | Cc1c(Cl)cccc1NC(=O)c1cc2sccc2n1Cc1ccc(F)cc1 | inconclusive [inhibitor, single point] | 
66 | C=CCNC(=S)N1CCc2[nH]c3ccccc3c2C1 |  | inconclusive: -35.1% [inhibitor]
67 | COc1cc(Cn2c3ccc(NC(=O)NCCc4ccccc4)cc3c(=O)n2C)ccc1F | inconclusive [inhibitor, single point] | 
68 | COC(=O)COC(=O)CC(CC(N)=O)c1ccccc1 (stereo not drawn) | inactive | 
69 | O=C(COc1ccc(Cl)cc1Cl)N1CCCN(C(=O)COc2ccc(Cl)cc2Cl)CC1 | inconclusive [inhibitor, single point] | 
70 | COc1ccc(C(CC(=O)c2ccccc2)S(=O)(=O)c2ccc(C)cc2)cc1 (stereo not drawn) | active: 14.1 µM | 
71 | Cc1ccccc1NC(=O)CSc1cn(CC(=O)N2CCCC2)c2ccccc12 | inconclusive [inhibitor, single point] | 
72 | Oc1ccccc1/C=N/NC(=S)NC1CC2CCC1C2 (stereo not drawn) | inconclusive [inhibitor, single point] | 
73 | Cc1c(-c2cccc(NC(=O)Nc3ccccc3)c2)nc2ncccn12 | inconclusive [inhibitor, single point] | 
